The other results are listed elsewhere or left out. Single values of this set are uncertain. Values with irradiation are relative to irradiated vehicle.

One assay has as its system A549-Dual. In words: ISRE reporter (Lucia luciferase) activity, viability-corrected, relative to vehicle (fold change vs vehicle); higher = more activation of STING-IRF / NF-kB immune response reporter. Particulars: 10 µM; irradiation: 8 Gy/4 fr.
`CC1(C)CC1C(=O)N/C(=C\CCCCSCC(N)C(=O)O)C(=O)O` (stereo unspecified) [Cilastatin] displayed an ISRE reporter of 1.09. The same measure, in the same setting: in the case of `OC1COC(O)C(O)C1O` (stereo not drawn) [L(+)-Arabinose] it was 0.744; in that of `CCn1cc(C(=O)O)c(=O)c2cc(F)c(N3CCN(C)CC3)cc21.CS(=O)(=O)O` [Pefloxacin Mesylate], 0.747. The same measure, in the same setting: the same measure for `CC(Cc1ccc(O)c(O)c1)(NN)C(=O)O` (stereo unspecified) [Carbidopa]: 0.89; for `CCOC(=O)C(CCc1ccccc1)NC(C)C(=O)N1CCCC1C(=O)O.O=C(O)/C=C\C(=O)O` (stereo unspecified) [Enalapril Maleate]: 1.08; for `CCCC1OC2CC3C4CCC5=CC(=O)C=CC5(C)C4C(O)CC3(C)C2(C(=O)CO)O1` (stereo unspecified) [Budesonide]: 0.069. Same read-out and setting: in the case of `O=c1cc(-c2ccccc2)oc2cc(O)c(O)c(O)c12` [Baicalein] it was 0.295; in that of `COc1ccccc1OCC(O)CO` (stereo unspecified) [Guaifenesin], 0.802; in that of `CC(O)C(=O)[O-].[NH4+]` (stereo unspecified) [Ammonium lactate], 0.959.

`CC1OC(Oc2c(-c3ccc(O)c(O)c3)oc3cc(O)cc(O)c3c2=O)C(O)C(O)C1O` (stereo unspecified) [Quercitrin]: the ISRE reporter was 0.709. Regarding `CC(C)CN(CC(O)C(Cc1ccccc1)NC(=O)OC1CCOC1)S(=O)(=O)c1ccc(N)cc1` (stereo unspecified) [Amprenavir], the ISRE reporter amounted to 0.726.

The same assay, now with this note: 10 µM; irradiation: none.
`Nc1nc2c(ncn2COCCO)c(=O)[nH]1` [Aciclovir] yielded an ISRE reporter of 0.739. Same read-out and setting: the same measure for `O=[N+]([O-])c1cncn1CCN1CCOCC1` [Nimorazole]: 1.07; for `NCC1OC(OC2C(N)CC(N)C(OC3OC(CO)C(O)C(N)C3O)C2O)C(O)C(O)C1O.O=S(=O)(O)O` (stereo unspecified) [Kanamycin sulfate]: 0.882; for `CSCCC(N)C(=O)O` (racemic) [DL-Methionine]: 0.807. On the same count and under the same terms, the same measure for `CC1Cc2ccccc2N1NC(=O)c1ccc(Cl)c(S(N)(=O)=O)c1` (stereo unspecified) [Indapamide]: 0.606; for `Nc1ncnc2c1ncn2C1OC(COP(=O)(O)OP(=O)([O-])OP(=O)([O-])O)C(O)C1O.[Na+].[Na+]` (stereo unspecified) [Adenosine disodium triphosphate]: 0.569; for `Nc1ncnc2c1ncn2C1OC(CO)C(O)C1O.O` (stereo unspecified) [Vidarabine monohydrate]: 1.4. The same measure, in the same setting: in the case of `CC(COc1ccccc1Cc1ccccc1)N1CCCCC1.O=P(O)(O)O` (stereo unspecified) [Benproperine phosphate] it was 0.977; in that of `CCOc1ccc(Cc2cc(C34OCC(CO)(O3)C(O)C(O)C4O)ccc2Cl)cc1` (stereo unspecified) [Ertugliflozin], 0.873; in that of `CCCOC(C(=O)OC1CCN(C)CC1)(c1ccccc1)c1ccccc1.Cl` [Propiverine hydrochloride], 0.597. Consider `CC(=O)CCC(=O)O` [Levulinic acid], for which the ISRE reporter turned out to be 0.698. The same measure, in the same setting: the same measure for `C#CC1(O)CCC2C3CCC4=CCCCC4C3CCC21C` (stereo unspecified) [Lynestrenol]: 0.607; for `CCCCCCCCc1ccc(CCC(N)(CO)CO)cc1.Cl` [Fingolimod (FTY720) HCl]: 1.6; for `CC1COc2c(N3CCN(C)CC3)c(F)cc3c(=O)c(C(=O)O)cn1c23` (stereo unspecified) [Levofloxacin]: 0.628. Still for that read-out and setting: in the case of `CC(=O)Oc1cc2c(s1)CCN(C(C(=O)C1CC1)c1ccccc1F)C2.Cl` (stereo unspecified) [Prasugrel Hydrochloride] it was 0.46; in that of `O=C1OC2(c3ccc(O)cc3Oc3cc(O)ccc32)c2ccccc21` [Fluorescein], 0.562; in that of `[OH][Al]([OH])[OH]` [Aluminium hydroxide], 0.921. In the case of `NCCC(O)C(=O)NC1CC(N)C(OC2OC(CN)C(O)C(O)C2O)C(O)C1OC1OC(CO)C(O)C(N)C1O.O` (stereo unspecified) [Amikacin hydrate], the ISRE reporter amounted to 0.945. Regarding `NC(=O)N1c2ccccc2C=Cc2ccccc21` [Carbamazepine], the ISRE reporter was found to be 1.03. In the case of `CC(C)(O)c1ccccc1CCC(SCC1(CC(=O)[O-])CC1)c1cccc(/C=C/c2ccc3ccc(Cl)cc3n2)c1.[Na+]` (stereo unspecified) [Montelukast Sodium], the ISRE reporter was found to be 0.508. On the same count and under the same terms, in the case of `CCCc1nn(C)c2c(=O)[nH]c(-c3cc(S(=O)(=O)N4CCN(C)CC4)ccc3OCC)nc12` [Sildenafil] it was 0.968; in that of `COC1/C=C/OC2(C)Oc3c(C)c(O)c4c(O)c(c(/C=N/N5CCN(C)CC5)c(O)c4c3C2=O)NC(=O)/C(C)=C/C=C/C(C)C(O)C(C)C(O)C(C)C(OC(C)=O)C1C` (stereo unspecified) [Rifampin], 0.83. Consider `CCCNC(=O)NS(=O)(=O)c1ccc(Cl)cc1` [Chlorpropamide], for which the ISRE reporter stood at 0.674. The same measure, in the same setting: in the case of `C=C(C)C1CCC2(CO)CCC3(C)C(CCC4C5(C)CCC(O)C(C)(C)C5CCC43C)C12` (stereo unspecified) [Betulin] it was 0.138. On the same count and under the same terms, the same measure for `COC(=O)Nc1nc2cc(C(=O)c3ccccc3)ccc2[nH]1` [Mebendazole]: 1.26. In the case of `COc1ccc(CC2c3cc(OC)c(OC)cc3CC[N+]2(C)CCC(=O)OCCCCCOC(=O)CC[N+]2(C)CCc3cc(OC)c(OC)cc3C2Cc2ccc(OC)c(OC)c2)cc1OC.O=S(=O)([O-])c1ccccc1.O=S(=O)([O-])c1ccccc1` (stereo unspecified) [Atracurium Besylate], the ISRE reporter came to 0.631.

With `COS(=O)(=O)[O-].COc1cc(N)cn[n+]1-c1ccccc1` [Amezinium (methylsulfate)], the ISRE reporter was determined as 0.57.

Turning to `Cc1cc(/C=C/c2ccc3cc(N(C)C)ccc3[n+]2C)c(C)n1-c1ccccc1.Cc1cc(/C=C/c2ccc3cc(N(C)C)ccc3[n+]2C)c(C)n1-c1ccccc1.O=C([O-])c1cc2ccccc2c(Cc2c(O)c(C(=O)[O-])cc3ccccc23)c1O` [pyrvinium], the ISRE reporter stood at 1.59. For `O=C(O)CSCC(=O)NC1CCSC1=O` (stereo unspecified) [Erdosteine], the ISRE reporter stood at 0.92. The compound `CC1(C)CC1C(=O)N/C(=C\CCCCSCC(N)C(=O)O)C(=O)O` (stereo unspecified) [Cilastatin] registered an ISRE reporter of 0.992. The compound `OC1COC(O)C(O)C1O` (stereo not drawn) [L(+)-Arabinose] yielded an ISRE reporter of 0.65.

`CCn1cc(C(=O)O)c(=O)c2cc(F)c(N3CCN(C)CC3)cc21.CS(=O)(=O)O` [Pefloxacin Mesylate] returned an ISRE reporter of 0.773.

`CC(Cc1ccc(O)c(O)c1)(NN)C(=O)O` (stereo unspecified) [Carbidopa] showed an ISRE reporter of 0.677. In turn, `CCOC(=O)C(CCc1ccccc1)NC(C)C(=O)N1CCCC1C(=O)O.O=C(O)/C=C\C(=O)O` (stereo unspecified) [Enalapril Maleate] showed an ISRE reporter of 0.859. Regarding `CCCC1OC2CC3C4CCC5=CC(=O)C=CC5(C)C4C(O)CC3(C)C2(C(=O)CO)O1` (stereo unspecified) [Budesonide], the ISRE reporter worked out at 0.24.

For `O=c1cc(-c2ccccc2)oc2cc(O)c(O)c(O)c12` [Baicalein], the ISRE reporter worked out at 0.296.

With `COc1ccccc1OCC(O)CO` (stereo unspecified) [Guaifenesin], the ISRE reporter amounted to 0.648. Take `CC(O)C(=O)[O-].[NH4+]` (stereo unspecified) [Ammonium lactate]: the ISRE reporter worked out at 0.656.

In turn, `CC1OC(Oc2c(-c3ccc(O)c(O)c3)oc3cc(O)cc(O)c3c2=O)C(O)C(O)C1O` (stereo unspecified) [Quercitrin] came in with an ISRE reporter of 0.661. The same measure, in the same setting: in the case of `CC(C)CN(CC(O)C(Cc1ccccc1)NC(=O)OC1CCOC1)S(=O)(=O)c1ccc(N)cc1` (stereo unspecified) [Amprenavir] it was 0.942.

The record behind these values is the supplement of paper PMC9174493.
